This passage reports binding signal results from PMC9911399, “Two distinct binding modes provide the RNA-binding protein RbFox with extraordinary sequence specificity”.

First the molecules themselves.
B1: GCGCGGA (DNA:RNA)
RNA: GGGAGACCGGAAUUCAGAUUGUCCGCGCGGAUUAAAUCCCGUCGUAGCCACCA
DNA 1: CAATCTGAATTCCGGTCTCCC
DNA 2: TGGTGGCTACGACGGGATT
B2: GUUCGUC (DNA:RNA)
RNA: B1 RNA with C26U, G27U, G30U, A31C
DNA 1: CAATCTGAATTCCGGTCTCCC
DNA 2: TGGTGGCTACGACGGGATT
B3: CGUUCCU (DNA:RNA)
RNA: GGGAGACCGGAAUUCAGAUUGUCCCGUUCCUUUAAAUCCCGUCGUAGCCACCA
DNA 1: CAATCTGAATTCCGGTCTCCC
DNA 2: TGGTGGCTACGACGGGATT
B4: CCUCCUU (DNA:RNA)
RNA: B3 RNA with G26C, U28C, C30U
DNA 1: CAATCTGAATTCCGGTCTCCC
DNA 2: TGGTGGCTACGACGGGATT
B5: GGAAGUU (DNA:RNA)
RNA: B3 RNA with C25G, U27A, U28A, C29G, C30U
DNA 1: CAATCTGAATTCCGGTCTCCC
DNA 2: TGGTGGCTACGACGGGATT
B6: GAGUAAC (DNA:RNA)
RNA: B1 RNA with C26A, C28U, G29A, G30A, A31C
DNA 1: CAATCTGAATTCCGGTCTCCC
DNA 2: TGGTGGCTACGACGGGATT
B7: CAAACGC (DNA:RNA)
RNA: B3 RNA with G26A, U27A, U28A, C30G, U31C
DNA 1: CAATCTGAATTCCGGTCTCCC
DNA 2: TGGTGGCTACGACGGGATT
B8: GUCCUUU (DNA:RNA)
RNA: B1 RNA with C26U, G27C, G29U, G30U, A31U
DNA 1: CAATCTGAATTCCGGTCTCCC
DNA 2: TGGTGGCTACGACGGGATT
B9: AUCAAAA (DNA:RNA)
RNA: B1 RNA with G25A, C26U, G27C, C28A, G29A, G30A
DNA 1: CAATCTGAATTCCGGTCTCCC
DNA 2: TGGTGGCTACGACGGGATT
B10: UUACCGA (DNA:RNA)
RNA: B1 RNA with G25U, C26U, G27A, G29C
DNA 1: CAATCTGAATTCCGGTCTCCC
DNA 2: TGGTGGCTACGACGGGATT
B11: AGACUAU (DNA:RNA)
RNA: B3 RNA with C25A, U27A, U28C, C29U, C30A
DNA 1: CAATCTGAATTCCGGTCTCCC
DNA 2: TGGTGGCTACGACGGGATT
B12: AUAGUCA (DNA:RNA)
RNA: B3 RNA with C25A, G26U, U27A, U28G, C29U, U31A
DNA 1: CAATCTGAATTCCGGTCTCCC
DNA 2: TGGTGGCTACGACGGGATT
B13: CAAAAAC (DNA:RNA)
RNA: B3 RNA with G26A, U27A, U28A, C29A, C30A, U31C
DNA 1: CAATCTGAATTCCGGTCTCCC
DNA 2: TGGTGGCTACGACGGGATT
B14: CAGACGC (DNA:RNA)
RNA: B3 RNA with G26A, U27G, U28A, C30G, U31C
DNA 1: CAATCTGAATTCCGGTCTCCC
DNA 2: TGGTGGCTACGACGGGATT
B15: GUUACGU (DNA:RNA)
RNA: B3 RNA with C25G, G26U, U28A, C30G
DNA 1: CAATCTGAATTCCGGTCTCCC
DNA 2: TGGTGGCTACGACGGGATT
B16: GCCUACU (DNA:RNA)
RNA: B3 RNA with C25G, G26C, U27C, C29A
DNA 1: CAATCTGAATTCCGGTCTCCC
DNA 2: TGGTGGCTACGACGGGATT
B17: UCGGUUG (DNA:RNA)
RNA: B1 RNA with G25U, C28G, G29U, G30U, A31G
DNA 1: CAATCTGAATTCCGGTCTCCC
DNA 2: TGGTGGCTACGACGGGATT
B18: GGGUCAC (DNA:RNA)
RNA: B3 RNA with C25G, U27G, C30A, U31C
DNA 1: CAATCTGAATTCCGGTCTCCC
DNA 2: TGGTGGCTACGACGGGATT
B19: GAACCCU (DNA:RNA)
RNA: B3 RNA with C25G, G26A, U27A, U28C
DNA 1: CAATCTGAATTCCGGTCTCCC
DNA 2: TGGTGGCTACGACGGGATT
B20: GUGUUCG (DNA:RNA)
RNA: B3 RNA with C25G, G26U, U27G, C29U, U31G
DNA 1: CAATCTGAATTCCGGTCTCCC
DNA 2: TGGTGGCTACGACGGGATT
B21: ACUUACC (DNA:RNA)
RNA: B3 RNA with C25A, G26C, C29A, U31C
DNA 1: CAATCTGAATTCCGGTCTCCC
DNA 2: TGGTGGCTACGACGGGATT
B22: UUAUCAU (DNA:RNA)
RNA: B3 RNA with C25U, G26U, U27A, C30A
DNA 1: CAATCTGAATTCCGGTCTCCC
DNA 2: TGGTGGCTACGACGGGATT
B23: UGUCGUG (DNA:RNA)
RNA: B3 RNA with C25U, U28C, C29G, C30U, U31G
DNA 1: CAATCTGAATTCCGGTCTCCC
DNA 2: TGGTGGCTACGACGGGATT
B24: ACAUGCU (DNA:RNA)
RNA: B3 RNA with C25A, G26C, U27A, C29G
DNA 1: CAATCTGAATTCCGGTCTCCC
DNA 2: TGGTGGCTACGACGGGATT
B25: GAUGCAU (DNA:RNA)
RNA: B3 RNA with C25G, G26A, U28G, C30A
DNA 1: CAATCTGAATTCCGGTCTCCC
DNA 2: TGGTGGCTACGACGGGATT
B26: UCUGGCA (DNA:RNA)
RNA: B1 RNA with G25U, G27U, C28G, G30C
DNA 1: CAATCTGAATTCCGGTCTCCC
DNA 2: TGGTGGCTACGACGGGATT
B27: GCAGCUA (DNA:RNA)
RNA: B1 RNA with G27A, C28G, G29C, G30U
DNA 1: CAATCTGAATTCCGGTCTCCC
DNA 2: TGGTGGCTACGACGGGATT
B28: UGUCUUU (DNA:RNA)
RNA: B3 RNA with C25U, U28C, C29U, C30U
DNA 1: CAATCTGAATTCCGGTCTCCC
DNA 2: TGGTGGCTACGACGGGATT
B29: GGAUACC (DNA:RNA)
RNA: B3 RNA with C25G, U27A, C29A, U31C
DNA 1: CAATCTGAATTCCGGTCTCCC
DNA 2: TGGTGGCTACGACGGGATT
B30: CAACCAA (DNA:RNA)
RNA: B3 RNA with G26A, U27A, U28C, C30A, U31A
DNA 1: CAATCTGAATTCCGGTCTCCC
DNA 2: TGGTGGCTACGACGGGATT
B31: AUGUGUA (DNA:RNA)
RNA: B1 RNA with G25A, C26U, C28U, G30U
DNA 1: CAATCTGAATTCCGGTCTCCC
DNA 2: TGGTGGCTACGACGGGATT

Positions count from the first letter of the chain named. This is one part of the list.

This experiment has as its target T1, RBFOX1 RRM RbFoxmut (Fox-RRM*) (Homo sapiens, UniProt Q9NWB1 109-208, R118D;E147R;N151S;E152T).
T1 sequence: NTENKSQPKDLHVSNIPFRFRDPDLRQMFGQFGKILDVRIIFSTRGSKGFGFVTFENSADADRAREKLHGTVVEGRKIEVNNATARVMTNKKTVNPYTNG
Nature of the experiment: EMSA; HiTS-Eq, 1 nM pool, 10 min; buffer printed only for the single-RNA assays: 10 mM Tris pH 7.5, 150 mM NaCl, 3.4 mM EDTA, 0.001% NP-40, 30 C. Conditions: tags: His6 N-terminal (pET28a); label: 5' 32P. In short, it runs like this: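 Purified wild-type or mutant RbFox RRM at increasing concentrations was equilibrated with 1 nM of 5′-radiolabelled RNA carrying 7 randomized nucleotides for 10 min in 50 µL. Unbound RNA was separated by 8% native PAGE and sequenced. Relative association constants came from read-count changes of each RNA species compared with the control reaction, normalised to the cognate motif.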
(In general: A gel shift assay detects complexes by their altered migration in electrophoresis.)
Take B1: the binding signal is 0.0813 KA relative to UGCAUGU.

As for B2, the binding signal was 0.199 KA relative to UGCAUGU.

As to B3, the binding signal was 0.0447 KA relative to UGCAUGU.

In the case of B4, the binding signal was 0.0511 KA relative to UGCAUGU.

On to B5, for which the binding signal is 0.0767 KA relative to UGCAUGU.

As to B6, the binding signal was 0.0879 KA relative to UGCAUGU.

For the molecule B7, the binding signal is 0.0658 KA relative to UGCAUGU.

With B8, the binding signal is 0.081 KA relative to UGCAUGU.

As for B9, the binding signal was 0.114 KA relative to UGCAUGU.

For B10, the binding signal was 0.0857 KA relative to UGCAUGU.

As to B11, the binding signal was 0.0902 KA relative to UGCAUGU.

For B12, the binding signal is 0.109 KA relative to UGCAUGU.

In the case of B13, the binding signal was 0.0684 KA relative to UGCAUGU.

For the molecule B14, the binding signal was 0.0515 KA relative to UGCAUGU.

Regarding B15, the binding signal was 0.132 KA relative to UGCAUGU.

For B16, the binding signal is 0.0913 KA relative to UGCAUGU.

Consider B17, for which the binding signal was 0.231 KA relative to UGCAUGU.

As for B18, the binding signal is 0.0601 KA relative to UGCAUGU.

With B19, the binding signal is 0.0592 KA relative to UGCAUGU.

B20: the binding signal is 0.324 KA relative to UGCAUGU.

Regarding B21, the binding signal was 0.0997 KA relative to UGCAUGU.

Consider B22, for which the binding signal was 0.126 KA relative to UGCAUGU.

As for B23, the binding signal was 0.193 KA relative to UGCAUGU.

Take B24: the binding signal was 0.102 KA relative to UGCAUGU.

As to B25, the binding signal is 0.0985 KA relative to UGCAUGU.

Take B26: the binding signal is 0.139 KA relative to UGCAUGU.

Regarding B27, the binding signal is 0.0971 KA relative to UGCAUGU.

In the case of B28, the binding signal was 0.0735 KA relative to UGCAUGU.

Take B29: the binding signal was 0.0829 KA relative to UGCAUGU.

Turning to B30, the binding signal is 0.103 KA relative to UGCAUGU.

For B31, the binding signal is 0.364 KA relative to UGCAUGU.
